These are yes or no findings as the source states them, for the method shown. Binding seen in cells or lysates may run through a third protein. Some results given as binding are weak or reduced against the parent protein; the word gives no strength.
Molecular target: pyruvate kinase M2 (PKM2) (human (endogenous in H1299)) (UniProt P14618)
Assay: co-IP; endogenous proteins in H1299 cell extracts, precipitated with Aurora A or PKM2 antibody, immunoblot

The chains behind the UniProt entries cited, without tags or fusion partners.
UniProt P14618: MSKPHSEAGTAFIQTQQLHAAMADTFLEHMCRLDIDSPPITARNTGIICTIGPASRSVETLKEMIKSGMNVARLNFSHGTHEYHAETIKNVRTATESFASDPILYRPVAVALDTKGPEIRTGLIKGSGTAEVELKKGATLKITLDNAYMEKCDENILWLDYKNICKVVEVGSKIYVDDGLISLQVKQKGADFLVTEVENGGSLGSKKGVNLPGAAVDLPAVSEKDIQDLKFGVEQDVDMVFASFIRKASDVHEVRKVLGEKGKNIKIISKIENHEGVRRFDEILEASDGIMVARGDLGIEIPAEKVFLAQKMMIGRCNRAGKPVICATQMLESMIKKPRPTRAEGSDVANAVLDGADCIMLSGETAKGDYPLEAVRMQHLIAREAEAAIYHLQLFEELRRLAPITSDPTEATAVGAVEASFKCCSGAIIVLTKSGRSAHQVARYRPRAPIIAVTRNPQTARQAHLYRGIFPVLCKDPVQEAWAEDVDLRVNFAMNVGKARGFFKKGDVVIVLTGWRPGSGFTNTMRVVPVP

B1: Aurora A (protein, UniProt O14965 1-403)
chain: MDRSKENCISGPVKATAPVGGPKRVLVTQQFPCQNPLPVNSGQAQRVLCPSNSSQRIPLQAQKLVSSHKPVQNQKQKQLQATSVPHPVSRPLNNTQKSKQPLPSAPENNPEEELASKQKNEESKKRQWALEDFEIGRPLGKGKFGNVYLAREKQSKFILALKVLFKAQLEKAGVEHQLRREVEIQSHLRHPNILRLYGYFHDATRVYLILEYAPLGTVYRELQKLSKFDEQRTATYITELANALSYCHSKRVIHRDIKPENLLLGSAGELKIADFGWSVHAPSSRRTTLCGTLDYLPPEMIEGRMHDEKVDLWSLGVLCYEFLVGKPPFEANTYQETYKRISRVEFTFPDFVTEGARDLISRLLKHNPSQRPMLREVLEHPWITANSSKPSNCQNKESASKQS
- binding: binds

— paper PMC9637814
